83 variants from the RNAGym collection of RNA variant scans (doi:10.7554/elife.90254) can be followed below.

The source gives no read counts; variants with many changes may rest on few reads.

The labels stand for the following.
B1: OR4K15 (parent)
chain: GUUAACGGUCAUAGGCCAUGGAAACUAGGAGCACCAUUUCGCUGCCAGUGAAGAAAUGAACAAAGAAAAUCUGGGCCAGGCAGGCAUCAAAAGAAAUAGUCUUGCGCUCAACCAGAAAGUCUGUAAUCAUUUUAAGGGUA

In this series the parent is B1. The series is described as follows: self-cleavage, relative activity (ratio to wild type); higher = more cleavage; in vitro, sequencing; the parent is a self-cleaving ribozyme.
Take U2C A5G A13C C40U A68G A86G A94G: the self-cleavage came to 1.23.
In the case of U2C A51G A56G U72A A94G U108A A116G it was 0.02; in that of U2C A62G A68C, 0.83.
In the case of U2C A67G U102C A114C, the self-cleavage turned out to be 0.
Consider U2C U43C U108C A116G, for which the self-cleavage amounted to 0.
In the case of U2C G50A A82G C109U it was 0.32.
Next, U2C C45U U133C: 1.12; U2A U43C U127C A140U: 0.69.
On to U2C U39A C42G A94G, for which the self-cleavage is 0.63.
In the case of G1A U9A A30G it was 1.42.
Regarding U2C A60G A117G, the self-cleavage came to 0.78.
Next, U2C A4G A11G A54G A78G A89U U132C: 0.36; U2C A78G A129U: 0.07.
Next, U2A U37C G44A: 1.99.
Next, U2C U26C U49C: 1.22.
As for U2C A33U A59G C113U A116G, the self-cleavage is 0.01.
In the case of U2C U49C A66G it was 0.06; in that of U2C A23G U57A A91G U103C, 0.07.
In the case of U2C U3C U39C A135G it was 0.67; in that of U2C A30G A52G U124C, 0.63.
Regarding U2C A5G A52G G79A, the self-cleavage stood at 0.18.
In the case of U2C U87C A90G it was 0.24; in that of U2C U9C A30U, 1.86.
For U2C A47U A59U, the self-cleavage amounted to 0.12.
For U2C A47U A78G A90G A140U, the self-cleavage is 0.17.
In the case of U2A U39C A95G U103C, the self-cleavage came to 1.38.
Turning to U2A U12A A90U A91G A118U, the self-cleavage stood at 0.77.
As for U2C A47G A64G A78C U108C, the self-cleavage is 0.02.
Next, U2A A96U A116G: 1.72.
Next, U2C C85G U122C: 0.82; U2A U37C U70C A114G U122C: 0; U2C A67G A111G: 0.07.
Next, U2A A69G U139C: 0.92; U2C A18U A22G A55U A63G U132C: 0.66; U2C A33G A116G: 0.4.
Consider U2C A114C U127C, for which the self-cleavage is 0.04.
In the case of U2C A52G A110C A116G U132C it was 0.04; in that of U2C A23G A94U A95U A140G, 1.45; in that of U2C U9C A22G, 1.36.
Next, U2C C10U A24G U122C A129G: 0.58; U2C U3A A5G A55U: 0.56; U2A U9C A118G: 0.91.
In the case of G1A A22G A51G it was 1.67; in that of U2C A11U A86C U97C A118G, 0.09; in that of U2C A59G U124C, 0.46.
Consider U2C U43A A94G U103C U131C, for which the self-cleavage was 0.07.
As for G1A A62G A111G, the self-cleavage came to 0.02.
As to U2C A24G A51G A78C U122C, the self-cleavage worked out at 0.24.
In the case of U2A A66G U102C U103G it was 0.85; in that of U2C A27G U132C, 1.32.
Next, U2C G7A U39C: 0.54.
Next, U2C U37C A68G A78G: 0.2; U2C U57C U102C U103C: 0.16; U2C U3C A18C A54G A60G A82G A86G A90G: 0.12.
As to U2C U37C C77U, the self-cleavage is 1.24.
Next, U2C C25U U120C A125C: 0.35; U2C A98G U108C A126G: 0; U2C U26C A51U U133A: 0.81.
As to U2C U3G U9C U130C, the self-cleavage was 1.09.
In the case of U2A A11G A30U A56G A117G A135U it was 1.18.
Next, U2A U43A U120C: 0.94; U2C U72C C85U: 0.23.
Next, G1A A66G U70C U108C: 0.04.
For U2C U43C A91G A94G, the self-cleavage is 0.86.
With U2A U9C A52G A59U U102C U130C, the self-cleavage came to 1.42.
Next, U2C A22U A62U A86U: 1.62; U2C A18G A78G: 0.48; U2A A18C C25U A90G: 1.14.
In the case of U2A A30G A56G U130C it was 0.39.
Take U2C A13G U127C U130C: the self-cleavage worked out at 0.61.
In the case of U2C U12C A18G A114U it was 0.08.
Next, U2C A24C U38A G138A: 1.49; G1U A13G A24U A59G A63G: 0.73.
Consider G1C A66U U132A, for which the self-cleavage stood at 0.68.
In the case of U2C U39C U57C C85U A118G it was 0.6; in that of U2C A67U A86G A110U U132C, 2.34.
In the case of U2A C61U U124C it was 1.1.
Take U2A A47G A52G A66G U87C A89U: the self-cleavage came out at 0.87.
Next, G1A A5G A66G U102A U108C A116G: 0; U2C A66U A98G U122C: 0.25; U2C A90G A111C A129G: 0.03.
In the case of U2A A62G C128A it was 0.83; in that of U2C U19C U38C A66G, 0.89.
